# Assay results as given in the supplement of paper PMC3334620.
# Whole data set: some 33,000 sequences, median “E-score (-0.5 to 0.5)” near -0.043, cut for the highest 2% near 0.37. The list shows a part of the results.
# Target: T1, Upc2 (UniProt Q12151)
# T1 sequence: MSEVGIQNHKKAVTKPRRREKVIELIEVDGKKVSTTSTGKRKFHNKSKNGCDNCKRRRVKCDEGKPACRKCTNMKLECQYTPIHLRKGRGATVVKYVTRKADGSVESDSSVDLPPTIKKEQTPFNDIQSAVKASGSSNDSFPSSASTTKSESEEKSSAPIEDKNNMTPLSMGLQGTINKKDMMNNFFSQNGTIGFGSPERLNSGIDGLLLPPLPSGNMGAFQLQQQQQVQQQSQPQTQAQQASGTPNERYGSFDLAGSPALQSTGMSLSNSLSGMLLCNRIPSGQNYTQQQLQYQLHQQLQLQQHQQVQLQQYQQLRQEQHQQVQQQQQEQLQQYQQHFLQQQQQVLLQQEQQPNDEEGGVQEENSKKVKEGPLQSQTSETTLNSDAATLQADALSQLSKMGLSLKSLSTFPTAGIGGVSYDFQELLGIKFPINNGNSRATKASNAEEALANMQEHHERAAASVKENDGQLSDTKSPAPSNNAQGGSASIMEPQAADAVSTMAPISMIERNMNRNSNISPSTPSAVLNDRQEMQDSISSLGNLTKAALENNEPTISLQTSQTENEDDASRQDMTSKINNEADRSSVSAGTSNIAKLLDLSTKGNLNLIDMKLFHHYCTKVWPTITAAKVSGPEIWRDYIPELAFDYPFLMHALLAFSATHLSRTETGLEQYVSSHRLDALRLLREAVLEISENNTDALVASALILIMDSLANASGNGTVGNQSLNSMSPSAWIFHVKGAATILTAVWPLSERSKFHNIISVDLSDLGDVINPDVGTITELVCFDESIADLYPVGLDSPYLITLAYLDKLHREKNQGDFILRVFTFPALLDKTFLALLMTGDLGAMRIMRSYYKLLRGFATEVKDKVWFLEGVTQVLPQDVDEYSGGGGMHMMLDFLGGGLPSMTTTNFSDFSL
# Test: PBM E-score (8-mer binding enrichment) (E-score (-0.5 to 0.5)); higher = stronger / more preferred TF binding; most listed sequences are background and not binding sites
# Conditions: protein concentration: 200 nM; construct: GST-full length
# Procedure: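 Universal 'all 10-mer' protein binding microarrays (Agilent AMADID 015681) probed with GST-tagged S. cerevisiae TFs (full-length or DBD) made by in vitro transcription/translation (PURExpress), about 100-200 nM. Bound TF was detected with fluorescent anti-GST. Each ungapped 8-mer (which stands for itself and its reverse complement) is scored by the PBM enrichment score (E-score), a modified Wilcoxon-Mann-Whitney statistic from -0.5 to +0.5, computed with the Universal PBM Analysis Suite. Scale: above 0.35 generally sequence-specific binding.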
row,Sequence,PBM E-score
1,CCAGGGGC,-0.289
2,CTCACCTC,-0.00475
3,GATGACAA,-0.131
4,AGGCGCTC,0.00445
5,GGCCTCAC,-0.0945
6,AAACTGTG,-0.161
7,ATCTGCTG,-0.0845
8,ATATGCGA,0.322
9,GCGAACAC,-0.00104
10,TAACTCAA,-0.0155
11,CCTTGCAG,-0.237
12,CCACATTA,0.00599
13,ACGGAGGA,0.0751
14,CGCGAGTA,0.214
15,AACGACGG,0.437
16,CCTCGGGC,0.0115
17,CATTGTGA,-0.191
18,ACCAACAG,-0.175
19,ACCCCGCC,0.0661
20,CCCGCCCA,0.114
21,CAATCTGA,-0.175
22,CAGCTCAC,-0.149

row,Sequence,PBM E-score
1,CTTTGTCC,-0.0099
2,ACTAGCCT,-0.107
3,ACCAGGAA,-0.00714
4,ACACCCCT,-0.273
5,AACCTGGT,-0.098
6,AGGGTGTG,-0.193
7,GAGTCGGC,-0.176
8,CGTCAGAA,-0.0731
9,CTCTTTCA,-0.0132
10,ACCTTCGT,0.306
11,AGTGGCGC,-0.0672
12,GCGTACCA,0.215
13,GGCAGACC,-0.25
14,ACGTTAGT,0.05
15,CCCCTTCA,-0.262
16,TCAGCACA,0.0649
17,ACGGATGA,0.181
18,ATCCAGAT,-0.0306
19,GTTCGGAA,0.124
20,GGCTAGGA,-0.251
21,AATCCGCC,-0.097
22,AAATGCTT,-0.175

row,Sequence,PBM E-score
1,CCGATCGG,0.0835
2,CTCCATGC,-0.313
3,CACAACTG,-0.0369
4,GGCAGCAC,-0.11
5,CTTGGAAC,0.0624
6,CAGATCCG,-0.065
7,AAATAGCC,-0.166
8,GTTCTGAA,0.0378
9,CGGAGCGC,-0.0741
10,TAGGCTCA,-0.279
11,CAGCACCA,-0.427
12,GGTCCGGA,0.1
13,CGATGTTC,-0.023
14,CTATACAA,0.0496
15,TAATAATA,0.182
16,GCGGCGCA,-0.186
17,ATTGGTGC,-0.0649
18,GAACAAGA,0.014
19,ATCGTTTC,0.401
20,GCAAAGCC,-0.0867
21,AAAACTAG,0.00719
22,CCAGAACA,0.0605

row,Sequence,PBM E-score
1,CGGTCTAA,0.00368
2,CGGGCGTA,0.138
3,TCTTGACA,-0.0889
4,ACTAAGTG,-0.0479
5,GAGGAGCA,0.0188
6,GAAGTATA,0.149
7,GAGCATGA,-0.036
8,CCTGCACC,-0.24
9,CATTATCC,0.116
10,CACGGTAC,-0.0237
11,GCGTTCTA,0.0855
12,AAAGATGG,-0.225
13,CTTTGTCA,-0.108
14,ACCGCAAG,0.0713
15,GCTTGAAA,0.0039
16,GCGCTTCC,-0.0303
17,ATAACGTC,-0.0505
18,GGCAGACA,0.0889
19,GCCCCAAA,0.0539
20,TCGCTTCA,0.012
